In PubChem BioAssay AID256 (DTP/NCI, 2004):
“And” between values parts separate entries of the source, which are not always exact repeats. Equal values may be shown once. Further values from the same series stand in other lists. Toxic doses and inconclusive results are not listed.

Tested on: CD2F1 mice, L1210 leukemia ip, survival T/C
Assay: NCI In Vivo Anticancer Drug Screen. Data for tumor model L1210 Leukemia (intraperitoneal) in CD2F1 (CDF1) mice
Settings: higher = longer survival
In short: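 Mice carrying a transplanted tumor received test compound or vehicle alone. The value is the measurement in the treated group divided by that in the vehicle-treated control group.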

SMILES: O=C1c2c(O)ccc(O)c2C(=O)c2c(NCCNCCO)ccc(NCCNCCO)c21
- T/C (endpoint: mean survival time, dose: 0.13 mg/kg/injection, schedule: Q01DX005 (iv), vehicle: clinical formulation): 106 % of control
- T/C (endpoint: mean survival time, dose: 0.13 mg/kg/injection, schedule: Q01DX005 (iv), vehicle: saline): 102 % of control
- T/C (endpoint: mean survival time, dose: 0.13 mg/kg/injection, schedule: Q01DX009 (ip), vehicle: water): 118 % of control
- T/C (endpoint: mean survival time, dose: 0.25 mg/kg/injection, schedule: Q01DX009 (ip), vehicle: saline): 291 % of control
- T/C (endpoint: mean survival time, dose: 0.5 mg/kg/injection, schedule: Q01DX005 (ip), vehicle: water): 200 % of control
- T/C (endpoint: mean survival time, dose: 0.5 mg/kg/injection, schedule: Q01DX009 (ip), vehicle: clinical formulation): 320 % of control
- T/C (endpoint: mean survival time, dose: 0.5 mg/kg/injection, schedule: Q01DX009 (ip), vehicle: saline): 285 % of control
- T/C (endpoint: mean survival time, dose: 0.75 mg/kg/injection, schedule: Q01DX009 (ip), vehicle: saline): 276 % of control
- T/C (endpoint: mean survival time, dose: 1.0 mg/kg/injection, schedule: Q01DX005 (ip), vehicle: water): 239 % of control
- T/C (endpoint: mean survival time, dose: 1.0 mg/kg/injection, schedule: Q01DX005 (iv), vehicle: clinical formulation): 286 % of control
- T/C (endpoint: mean survival time, dose: 1.0 mg/kg/injection, schedule: Q01DX009 (ip), vehicle: clinical formulation): 535 % of control
- T/C (endpoint: mean survival time, dose: 1.0 mg/kg/injection, schedule: Q01DX009 (ip), vehicle: saline): 468 % of control
- T/C (endpoint: mean survival time, dose: 1.0 mg/kg/injection, schedule: Q01DX009 (ip), vehicle: water): 157 % of control and 163 % of control
- T/C (endpoint: mean survival time, dose: 1.5 mg/kg/injection, schedule: Q01DX009 (ip), vehicle: saline): 258 % of control and 261 % of control
- T/C (endpoint: mean survival time, dose: 2.0 mg/kg/injection, schedule: Q01DX005 (ip), vehicle: water): 294 % of control
- T/C (endpoint: mean survival time, dose: 2.0 mg/kg/injection, schedule: Q01DX005 (iv), vehicle: clinical formulation): 90 % of control
- T/C (endpoint: mean survival time, dose: 2.0 mg/kg/injection, schedule: Q01DX009 (ip), vehicle: saline): 297 % of control
- T/C (endpoint: mean survival time, dose: 2.0 mg/kg/injection, schedule: Q01DX009 (ip), vehicle: water): 160 % of control and 195 % of control
- T/C (endpoint: mean survival time, dose: 4.0 mg/kg/injection, schedule: Q01DX009 (ip), vehicle: clinical formulation): 86 % of control
- T/C (endpoint: mean survival time, dose: 4.0 mg/kg/injection, schedule: Q01DX009 (ip), vehicle: saline): 89 % of control
- T/C (endpoint: mean survival time, dose: 4.0 mg/kg/injection, schedule: Q01DX009 (ip), vehicle: water): 124 % of control and 107 % of control
- T/C (endpoint: median survival time, dose: 0.25 mg/kg/injection, schedule: Q01DX009 (ip), vehicle: water): 162 % of control and 172 % of control
- T/C (endpoint: median survival time, dose: 0.5 mg/kg/injection, schedule: Q01DX009 (ip), vehicle: water): 261 % of control and 361 % of control
- T/C (endpoint: median survival time, dose: 1.0 mg/kg/injection, schedule: Q01DX009 (ip), vehicle: water): 340 % of control and 361 % of control
- T/C (endpoint: median survival time, dose: 2.0 mg/kg/injection, schedule: Q01DX009 (ip), vehicle: water): 121 % of control and 253 % of control
- T/C (endpoint: median survival time, dose: 3.0 mg/kg/injection, schedule: Q04DX003 (ip), vehicle: saline): 318 % of control
- T/C (endpoint: median survival time, dose: 4.0 mg/kg/injection, schedule: Q01DX009 (ip), vehicle: water): 120 % of control and 89 % of control
- T/C (endpoint: median survival time, dose: 10.0 mg/kg/injection, schedule: Q01DX001 (iv), vehicle: saline): 244 % of control
- T/C (endpoint: median survival time, dose: 16.7 mg/kg/injection, schedule: Q01DX001 (iv), vehicle: saline): 495 % of control

SMILES: Cc1cc(NCCCCCCNc2cc(C)nc3ccc(N)cc23)c2cc(N)ccc2n1
- T/C (endpoint: mean survival time, dose: 0.5 mg/kg/injection, schedule: Q08HX006 (iv), vehicle: saline with Tween-80): 102 % of control
- T/C (endpoint: mean survival time, dose: 1.0 mg/kg/injection, schedule: Q08HX006 (iv), vehicle: saline with Tween-80): 102 % of control
- T/C (endpoint: mean survival time, dose: 1.2 mg/kg/injection, schedule: Q01DX009 (ip), vehicle: saline with Tween-80): 104 % of control and 107 % of control
- T/C (endpoint: mean survival time, dose: 1.9 mg/kg/injection, schedule: Q08HX006 (iv), vehicle: saline with Tween-80): 103 % of control
- T/C (endpoint: mean survival time, dose: 1.94 mg/kg/injection, schedule: Q01DX005 (iv), vehicle: saline with Tween-80): 102 % of control
- T/C (endpoint: mean survival time, dose: 1.94 mg/kg/injection, schedule: Q01DX009 (ip), vehicle: saline with Tween-80): 104 % of control
- T/C (endpoint: mean survival time, dose: 1.94 mg/kg/injection, schedule: Q01DX009 (sc), vehicle: saline with Tween-80): 101 % of control
- T/C (endpoint: mean survival time, dose: 2.25 mg/kg/injection, schedule: Q01DX009 (ip), vehicle: saline): 110 % of control
- T/C (endpoint: mean survival time, dose: 2.53 mg/kg/injection, schedule: Q01DX009 (ip), vehicle: water): 106 % of control
- T/C (endpoint: mean survival time, dose: 2.53 mg/kg/injection, schedule: Q01DX009 (sc), vehicle: water): 101 % of control
- T/C (endpoint: mean survival time, dose: 2.58 mg/kg/injection, schedule: Q01DX009 (ip), vehicle: saline with Tween-80): 109 % of control
- T/C (endpoint: mean survival time, dose: 2.58 mg/kg/injection, schedule: Q01DX009 (sc), vehicle: saline with Tween-80): 102 % of control
- T/C (endpoint: mean survival time, dose: 3.38 mg/kg/injection, schedule: Q01DX009 (ip), vehicle: water): 108 % of control
- T/C (endpoint: mean survival time, dose: 3.44 mg/kg/injection, schedule: Q01DX005 (iv), vehicle: saline with Tween-80): 108 % of control
- T/C (endpoint: mean survival time, dose: 4.0 mg/kg/injection, schedule: Q01DX009 (ip), vehicle: saline with Tween-80): 109 % of control
- T/C (endpoint: mean survival time, dose: 4.5 mg/kg/injection, schedule: Q01DX009 (ip), vehicle: saline): 110 % of control
- T/C (endpoint: mean survival time, dose: 4.51 mg/kg/injection, schedule: Q01DX009 (sc), vehicle: water): 102 % of control
- T/C (endpoint: mean survival time, dose: 4.59 mg/kg/injection, schedule: Q01DX005 (iv), vehicle: saline with Tween-80): 102 % of control
- T/C (endpoint: mean survival time, dose: 4.7 mg/kg/injection, schedule: Q01DX009 (ip), vehicle: saline with Tween-80): 111 % of control
- T/C (endpoint: mean survival time, dose: 6.01 mg/kg/injection, schedule: Q01DX009 (sc), vehicle: water): 104 % of control
- T/C (endpoint: mean survival time, dose: 7.2 mg/kg/injection, schedule: Q01DX009 (ip), vehicle: saline with Tween-80): 101 % of control
- T/C (endpoint: mean survival time, dose: 8.01 mg/kg/injection, schedule: Q01DX009 (sc), vehicle: water): 108 % of control
- T/C (endpoint: mean survival time, dose: 8.2 mg/kg/injection, schedule: Q01DX005 (iv), vehicle: saline with Tween-80): 102 % of control
- T/C (endpoint: mean survival time, dose: 10.7 mg/kg/injection, schedule: Q01DX009 (sc), vehicle: water): 108 % of control
- T/C (endpoint: mean survival time, dose: 10.9 mg/kg/injection, schedule: Q01DX005 (iv), vehicle: saline with Tween-80): 102 % of control and 112 % of control
- T/C (endpoint: mean survival time, dose: 12.8 mg/kg/injection, schedule: Q01DX009 (ip), vehicle: saline with Tween-80): 106 % of control
- T/C (endpoint: mean survival time, dose: 14.2 mg/kg/injection, schedule: Q01DX009 (sc), vehicle: water): 110 % of control
- T/C (endpoint: mean survival time, dose: 14.5 mg/kg/injection, schedule: Q01DX005 (iv), vehicle: saline with Tween-80): 109 % of control and 112 % of control
- T/C (endpoint: mean survival time, dose: 14.5 mg/kg/injection, schedule: Q01DX009 (sc), vehicle: saline with Tween-80): 106 % of control
- T/C (endpoint: mean survival time, dose: 15.3 mg/kg/injection, schedule: Q08HX006 (iv), vehicle: saline with Tween-80): 102 % of control
- T/C (endpoint: mean survival time, dose: 61.2 mg/kg/injection, schedule: Q08HX009 (iv), vehicle: saline with Tween-80): 104 % of control
- T/C (endpoint: mean survival time, dose: 100.0 mg/kg/injection, schedule: Q04DX003 (ip), vehicle: saline): 112 % of control
- T/C (endpoint: mean survival time, dose: 300.0 mg/kg/injection, schedule: Q04DX003 (ip), vehicle: saline with Tween-80): 101 % of control
